Assay results: the RNAGym collection of RNA variant scans (doi:10.1093/nar/gkz1192)
The source gives no read counts; variants with many changes may rest on few reads.

B1: CPEB3 Ribozyme (parent)
chain: UAACAGGGGGCCACAGCAGAAGCGUUCACGUCGCAGCCCCUGUCAGAUUCUGGUGAAUCUGCGAAUUCUGCUGUAUAUCUC

Variants of: B1
Assay: self-cleavage, relative activity (ratio to wild type); higher = more cleavage; in vitro, sequencing
In short: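 For each CPEB3 ribozyme variant, relative activity is its cleaved/total read fraction divided by the unmutated ribozyme's. Barcoded error-prone PCR libraries were transcribed by T7 RNA polymerase (5 hours, 37°C) and held in DNase I for 15 min before an EDTA stop, with cleavage occurring throughout. Template-switching reverse transcription and Illumina sequencing were used to read the RNAs. A 5-read minimum applied, and results are the mean of three batches.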
UAGCGGGGGGCCACAGCAGAAGCGUUCGCGUCGCGGCCCCUGUCAGAUUCUGGUGAAUCUGCGAAUUCUGCCGUAUAUCUC [A3G A5G A28G A35G U72C] showed a self-cleavage of 0.86.
In the case of UAGCCGGGGGCCACAGCAGAAGCGUGCUCGUCGUAGCCCCUGUCAGGUUCUGGUGAAUCUGCGAAUUCUGCUGUAUAUCUC [A3G A5C U26G A28U C34U A47G], the self-cleavage is reported as 0.05.
Variant UACCAGGGGACCACAGCAGAAGCGUUCACGUCGCAGCCCCUGCCAGAUUCUGGUGGAUCUGCGAAUUCUGCUGUAUAACCC [A3C G10A U43C A56G U78A U80C] has a self-cleavage of 0.08.
UACCAGGGGGCCACAGCAGAAGCGUUCACGUCGCAGCCCCAGUCGGUUUCUGGUGGAUCUGCGAAUUCUGCUGUAUAACUC [A3C U41A A45G A47U A56G U78A] showed a self-cleavage of 0.16.
For UAGCUGGGGGCCUCAGCAAAAGCGUUCUCGUCGCAGCCCCUGUCAGUUUCUGGCGAAUCUGCGAAUUCUGCUGUAUAUCUC [A3G A5U A13U G19A A28U A47U U54C], the self-cleavage was 0.05.
Variant UAGCUGGGGGCCACAGCUGAAGCGUUCACGUCGCAGCCCCCGUCAGAUUCUGGUGAAUCCGCGAAUUCUGCUGUAUAUAUC [A3G A5U A18U U41C U60C C79A] has a self-cleavage of 0.63.
Work on UAGCGGGGGACCACAGCAGAAGCGUUCACGUCGCAGCCCCUGUCAGAUUCUGGCGAAUCUGCGAAUCCUGCUGUAUAUCUC [A3G A5G G10A U54C U67C] yielded a self-cleavage of 0.16.
With UACCAGGGGGCCACAGCAGAAGCAUUCACGUCGCAGCGCCUGUCAGAUUCUGGUGGAUCUGCGAAUUCUGCUGUAUAUCUC [A3C G24A C38G A56G] the self-cleavage was 0.09.
Work on UAGCGGGGAGCCACAGCAGAAGCGUUCACGUCGCAGCCCUUGUCAGAUUCUGGUGAAUCUGCGAAUUCUGCUGUAUAUCUC [A3G A5G G9A C40U] yielded a self-cleavage of 0.12.
UAGCGGGGGGCCACAGCAGAAGCGUUCACGUCGCAGCCCCUGUCAGAUUCUGGUGAAUCUGCGAAUUCUGCCGUAUACCUC [A3G A5G U72C U78C] showed a self-cleavage of 1.03.
UAGCGGGGGGCCACAGCAGAAGCGUUCACGUCGCGGCCCCUGUCAGAUUCUGGUGAAUCUGCGAAUCCCGCUGUAUAUCUC [A3G A5G A35G U67C U69C] gave a self-cleavage of 0.34.
In the case of UACCAGGGGGCCACACCAGAAGCGUUCACGUCGCAGCCCCUGUCAGAUUCUGGUGAAUCUGAGAAUUCUGCUGUAUAUCUC [A3C G16C C62A], the self-cleavage is reported as 0.41.
Variant UAGCGGGGGGCCACAGCAGACGCGUUCACGUCUCAGCCCCUGUCAGGUUCUGGUGAAUCUGCGAACUCUGCUGUAUAUCUC [A3G A5G A21C G33U A47G U66C] has a self-cleavage of 0.15.
For UAGCUGGGGGCCACAGCAGGAGCGCUCACGUCGCAGCCCCUAUCAGAUUCUGGUGAACCUGCGAAUUCUGCAGUAUAUCUC [A3G A5U A20G U25C G42A U58C U72A], the self-cleavage was 0.15.
For UAGCUGGGGGCCGCAGCAGAAGCGUUCACGUCGCAGCCCCUGUCAGAUUCUGGUGAGUCUGCGAAUUCUGCAGUAUAUCUC [A3G A5U A13G A57G U72A], the self-cleavage was 0.31.
With UACCAGGGGGCCACAGCAGAAGCGUUCACGUCGCAACCCCUGUAAGAUUCUGGCGAAUCUGCGAAUUCUGCUGUAUAUCUC [A3C G36A C44A U54C] the self-cleavage was 0.12.
With UAGCGGGGGGCCACAGCAGAAGCGCUCACGUCGCAGCCCCUGUCAGAUUCUGGUGAUUCUGCGAAUUCUGCCGUAUACCUC [A3G A5G U25C A57U U72C U78C] the self-cleavage was 0.11.
Work on UAGCGAGGGGCCACAGCAGAAGCGUUCACGUCGCAGCCCCAGUCAGAUUCAGGUGAAUUUGCGAAUUCUGCUGUAAAUCUC [A3G A5G G6A U41A U51A C59U U76A] yielded a self-cleavage of 0.05.
Work on UAGCGGGGGGCCACAGCAGAAGCGUUCACGUCGCAGCCCCCGUCAGAUUCUGGUGAAUCUGCGAAUUCUGCUGUAUAUCUC [A3G A5G U41C] yielded a self-cleavage of 0.72.
Variant UACCAGGGGGCCACAGCAGAAGCGUUCACGCCGCAGCCCCUGUCAGAUUCUGGUGAAUCUGCAAAUUCUGCUGUAUAUCUC [A3C U31C G63A] has a self-cleavage of 0.99.
UAGCGGGGGGCCACAGCAGAAGAGCUCACGUCGCAGCCCCCGUCAGAUUCUGGUGAAUCUGCGAGUUCUGCUGUAUACCUC [A3G A5G C23A U25C U41C A65G U78C] gave a self-cleavage of 0.09.
For UAGCGGGGGGCCACAGCAGAAGCGUUCACGUCGCAGCCCCUGUCAGAUUCUGGUGAAUCAGCGAAUUCUGCUGUAUAUCUC [A3G A5G U60A], the self-cleavage was 0.
With UACCAGGGGGCCACAGCAAGAGCGUUCACGUCGCAGCCCCUGUCAGAUUCUGGUGAAUCUGCGAAUUCUGCUGUAUAUCUC [A3C G19A A20G] the self-cleavage was 0.59.
With UAGCGGGGGGCCACAGCAGGAGCGUUCACGUCGCAGCCCCUGUCAGAUACUGGUGAAUCUGCGGACUCUGCUGUAUAUCUC [A3G A5G A20G U49A A64G U66C] the self-cleavage was 0.12.
In the case of UAGCGGGGGGCCACAGCAGAAGCGUUCACGUCGCAGCCCCUGUCGGAUUCUGGUGAAUCUGCGAAUUCUGCCGUAUAUCUC [A3G A5G A45G U72C], the self-cleavage is reported as 0.41.
With UACCAGGGGACCACAGCAGAAGCGUUCACGCCGCAGCCCCUGUCAGAUUCUGGUGAAUCUGCGAAUUCUGCAGUAUAUCUC [A3C G10A U31C U72A] the self-cleavage was 0.04.
With UACCAGGGGGCCACAGCAGAAGCGUUCACGUCGCAGCCCCUGUCAGAUUCUGGAGAGUCUGCGAAUACUGCUGUAUAUCUC [A3C U54A A57G U67A] the self-cleavage was 0.79.
UACCAGGGGGCCACAGCAGAAGCGCUCACGUCGCAGCCCCUGUCAGAUUCUGGUGAAUCUGCAAAUUCUGCUGUAUACCUC [A3C U25C G63A U78C] showed a self-cleavage of 0.14.
UAGCUGGGGGCCACUGCAGAACCGUUCACGCCGCAGCCCCUGUCAGAUUCUGGUGAAUCUGCGAAUUCUGCUGUAUAUCUC [A3G A5U A15U G22C U31C] showed a self-cleavage of 0.53.
Variant UACCAGGGGGCCACAGCAGAAGCGCUCACGUCGCUGCCCCUGUCAGAUUCUGGUGAAUCUGCGAAUUCUGCUGUAUAUCUC [A3C U25C A35U] has a self-cleavage of 0.54.
With UAGCGGGGGGCCACAGCAGAAGCGUUCACGUCGCAGCCCCUGUCAGAUUCUGGUGAAUCUGCGAAUUCUGCCGUAUAUCUA [A3G A5G U72C C81A] the self-cleavage was 1.
For UACCAGGGGGCCACAGCAGAAGCGCUCACGUCGCAGCCCCUGUCGGAUUCUGGUGAAUCUGCGAAUACUGCUGUAUAUCUC [A3C U25C A45G U67A], the self-cleavage was 0.51.
UAGCGGGGGGCCUCAGCAGAAGCGUUCACGUCGCAGCCCCCGUCAGAUUCUGGUGAAUCUGCGAGUUCUGCUGUGUAUCUC [A3G A5G A13U U41C A65G A75G] gave a self-cleavage of 0.38.
Work on UACCAGGGGUCCACUGCAGAAGCGUUCACGUCGCAGCCCCUGUCAGAUUCUGGUGAAUCUGCGAAUUCUGCUGUAUAUCUC [A3C G10U A15U] yielded a self-cleavage of 0.08.
